From paper PMC9756848, “Kinetics of free and ligand-bound atacicept in human serum” (Frontiers in Immunology, 2022) come the findings set out here.

The data set concerns the molecule itself. The data set can be described thus: SEC; Superdex S200 Increase HR 10/30, PBS 10 ug/ml BSA, 0.7 ml/min; proteins alone or Flag-ligand with a 20-fold mass excess of atacicept; fractions analysed by Western blot; complexes of fractions 10 and 11 concentrated and run again.

B1: Flag-hBAFF (ligand)
chain: not shown
notes: linker between the Flag tag and hBAFF; human BAFF (BLyS), […]; also called Flag-BAFF; human Flag-BAFF; source: 293T, transient transfection, purified on anti-Flag agarose; not shown: Flag, N-terminal, kept
Consider B1, for which the “stoichiometry N” value was determined as 3.

For orientation: stoichiometry N means the number of molecules, sites or subunits per partner or assembly.
